Test results as given in article PMC4336329 (PLoS ONE, 2015).
The campaign covered roughly 310,000 compounds. About 2,200 (0.71%) showed an effect of 50% or more. The effect is printed as a negative number. The list shows a part of the results.

biological target: human ether-à-go-go-related gene (hERG) potassium channel (human, UniProt Q12809); assay: primary screen, population patch clamp on CHO cells stably expressing hERG
Sequence (Q12809 whole entry, looked up): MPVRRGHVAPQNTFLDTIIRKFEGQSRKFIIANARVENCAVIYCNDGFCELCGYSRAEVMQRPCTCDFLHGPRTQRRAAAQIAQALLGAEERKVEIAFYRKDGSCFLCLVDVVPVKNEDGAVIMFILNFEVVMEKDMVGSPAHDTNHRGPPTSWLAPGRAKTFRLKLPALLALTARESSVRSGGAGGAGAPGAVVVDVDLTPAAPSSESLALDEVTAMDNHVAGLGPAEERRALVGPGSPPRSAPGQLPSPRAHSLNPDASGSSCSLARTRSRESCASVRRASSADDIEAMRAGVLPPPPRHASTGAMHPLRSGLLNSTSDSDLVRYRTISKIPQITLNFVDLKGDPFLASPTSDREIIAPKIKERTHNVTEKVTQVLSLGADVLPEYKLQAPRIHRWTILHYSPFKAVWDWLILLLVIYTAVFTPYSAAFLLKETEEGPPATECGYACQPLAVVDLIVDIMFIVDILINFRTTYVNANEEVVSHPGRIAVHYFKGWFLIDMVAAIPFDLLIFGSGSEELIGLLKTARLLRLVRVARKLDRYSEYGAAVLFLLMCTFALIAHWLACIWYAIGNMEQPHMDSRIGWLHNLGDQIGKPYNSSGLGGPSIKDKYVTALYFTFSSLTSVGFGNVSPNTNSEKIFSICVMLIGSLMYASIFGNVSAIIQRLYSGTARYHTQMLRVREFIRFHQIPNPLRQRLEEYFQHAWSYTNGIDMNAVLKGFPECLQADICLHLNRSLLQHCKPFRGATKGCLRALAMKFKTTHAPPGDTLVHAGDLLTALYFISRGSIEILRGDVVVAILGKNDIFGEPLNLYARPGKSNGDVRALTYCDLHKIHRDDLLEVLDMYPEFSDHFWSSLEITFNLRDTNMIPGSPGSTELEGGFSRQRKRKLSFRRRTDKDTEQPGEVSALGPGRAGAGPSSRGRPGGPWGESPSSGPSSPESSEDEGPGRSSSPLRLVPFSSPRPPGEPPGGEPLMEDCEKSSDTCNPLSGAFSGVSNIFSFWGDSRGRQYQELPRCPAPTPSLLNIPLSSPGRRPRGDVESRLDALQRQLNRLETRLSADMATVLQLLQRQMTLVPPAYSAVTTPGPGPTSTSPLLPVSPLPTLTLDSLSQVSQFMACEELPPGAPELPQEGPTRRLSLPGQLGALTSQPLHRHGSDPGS

SMILES | hERG current change (%, negative = inhibition) at 1uM [%]
Cl.O=[N+]([O-])c1ccccc1OCCCN1CCc2ccccc2C1 | -8.59
COC(=O)c1ccccc1NC(=O)CNC(=O)c1ccc(OC)cc1 | 2.5
CN(C)C(=O)c1cc2cc([N+](=O)[O-])ccc2s1 | 5.57
CC(C)CC(=O)N1CCN(S(=O)(=O)c2ccc(Cl)cc2)CC1 | 0.918
CCCCN(C(=O)Cn1nnc2ccccc21)C(C(=O)NCc1ccco1)c1ccncc1 (stereo not drawn) | 3.31
Cc1cc(Oc2ccccc2)nc(-c2ccccc2O)n1 | -3.35
Cc1ccc2nc(C)cc(C(=O)Nc3nccs3)c2c1 | 10.8
COc1ccc(/C=N/N=C2\SCC(=O)N2c2c(C)n(C)n(-c3ccccc3)c2=O)cc1OC | 23.4
Cc1[nH]c(=O)[nH]c1C(=O)CCCCC(=O)OCC(=O)Nc1ccccn1 | 13.1
COc1cccc(-c2nc(-c3ccncc3)no2)c1 | -0.32
Cn1cnnc1SCC(=O)Nc1sc2c(c1C#N)CCCCC2 | -4.87
CCC1CCc2c(sc3nc(SCC(=O)NCc4ccco4)n(-c4ccccc4)c(=O)c23)C1 (stereo not drawn) | 9.47
CCN1CCC(NC(=O)Nc2cccc(C(F)(F)F)c2)CC1 | -14
O=C(CCn1nc(-c2ccc(Cl)cc2)ccc1=O)NCc1cccnc1 | -7.54
COC(=O)C1=NN(c2ccc(C)cc2)C2(S1)SC(C(C)=O)=C(C)N2c1ccccc1 (stereo not drawn) | -0.862
COC(=O)c1ccc(NC(=O)N2CCC(O)(c3cccnc3)CC2)cc1 | 8.63
CCOc1ccc(NC(=O)CN2CCN(c3ccccc3C)CC2)cc1S(=O)(=O)N1CCCC1 | 5.59
O=C(CNC(=O)c1ccccc1F)OCC(=O)c1ccc(Cl)s1 | 12.2
O=C(Nc1cccc(C(=O)O)c1)Nc1cccc2ccccc12 | 22.4

SMILES | hERG current change (%, negative = inhibition) at 1uM [%]
CN(C)C=Nc1nonc1N | 5.74
Cc1ccc(S(=O)(=O)NCc2ccco2)c(C)c1C | 4.69
CCC(=O)N1CCc2cc(S(=O)(=O)NCCC(=O)Nc3ccccc3C)ccc21 | 10.4
CN1CCc2c(n(CC(O)CNCc3ccccc3)c3ccccc23)C1=O.Cl (stereo not drawn) | -15
O=CN1CCN(c2c([N+](=O)[O-])c(=O)oc3ccccc23)CC1 | 14
O=C(NC1CCCCCC1)C1Cc2ccccc2CN1C(=O)c1ccco1 (stereo not drawn) | 14.7
Cc1ccc(NS(=O)(=O)c2ccc(-c3coc(C)n3)cc2)c(Br)c1 | 12.2
CCOC(=O)N1CCN(C(=O)c2noc3c2COc2ccccc2-3)CC1 | 5.65
O=C(C1=C[C@H](c2ccc(C(F)(F)F)cc2)C[C@H](OCc2ccc(CO)cc2)O1)N1CCN(Cc2ccc3c(c2)OCO3)CC1 | -9.65
Cc1cc(=O)[nH]c(Nc2cccc(C(F)(F)F)c2)n1 | -2.7
O=C(C1CC2CCC1C2)N1CCN(Cc2ccc3c(c2)OCO3)CC1 (stereo not drawn) | 9.72
O=C(N/N=C/c1cc(Cl)cc([N+](=O)[O-])c1O)NC12CC3CC(CC(C3)C1)C2 | 12.2
CCCCNC(=S)NNC(=O)c1nn(C)c(C)c1Cl | 9.11
c1ccc(C2c3[nH]c4ccccc4c3CCN2Cc2cccn2-c2ccccn2)nc1 (stereo not drawn) | -4.99
CCOC(=O)[C@@]12C(=O)C(=O)N[C@]1(c1ccccc1)C1OCCCC12 (stereo partly drawn) | 3.58
COc1ccc(NC(=O)CSc2nnnn2C)c([N+](=O)[O-])c1 | 12.2
COc1ccccc1/C=N/Nc1nncc2ccccc12 | 18.1
Cc1c(C(=O)OCC2CCCO2)[nH]c2c1C(=O)CC(c1ccco1)C2 (stereo not drawn) | 7.54
O=C(/C=C/c1ccco1)Nc1ccccc1C(=O)O | 17

SMILES | hERG current change (%, negative = inhibition) at 1uM [%]
CCOC(=O)c1cnc2ccc(Br)cc2c1NCCCN1CCOCC1 | -0.7
CCCS(=O)(=O)N1CCCC(C(=O)NCCCN2CCN(c3ccc(F)cc3)CC2)C1 (stereo not drawn) | -28.6
O=C(CN(C(=O)c1nsc(Cl)c1Cl)c1cccc(F)c1)NC1CCCC1 | 15.3
CC(c1ccccc1)n1cc(C(=O)NCc2cccnc2)nn1 (stereo not drawn) | 16
O=C(Nc1ccc2nc(N3CCOCC3)sc2c1)c1ccccc1 | 2.08
CCCC(=O)Nc1ccc(C(=O)NCC(=O)OCC)cc1 | 12.1
O=C(CSCCOc1ccccc1)NCc1ccncc1 | 8.57
CCOc1cc(/C=N/NC(=O)CNc2ccc(C)cc2)ccc1OC(=O)c1ccccc1 | -0.419
Fc1ccc(CNC(=S)Nc2ccc(Cl)cc2Cl)cc1 | 13.2
O=C1CCCN1S(=O)(=O)c1ccc(F)cc1 | 7.6
Cn1c(C(=O)N2CCCC(Nc3ccc(F)cc3)C2)cc2ccccc21 (stereo not drawn) | 10.9
Cc1ccc(S(=O)(=O)n2c(=O)oc3ccccc32)cc1 | 7.35
Cc1cc(NC(=O)CSc2ccc3nnc(-c4ccccn4)n3n2)no1 | 10
Cc1cc(C)n(S(=O)(=O)c2cc(C)c(C)cc2C)n1 | 8.84
Cc1cc(C)c(S(=O)(=O)N(CC(=O)N2CCCC2)C2CCCCC2)c(C)c1 | -13.5
COC(=O)C1(Cc2cc(-c3ccc([N+](=O)[O-])cc3)no2)CCN(C(=O)OC(C)(C)C)CC1 | 14.1
O=C(O)CCn1c(SCc2ccccc2)nc2ccccc21 | 7.33
CC(C)(C)c1nc(N2CCN(C(=O)c3ccco3)CC2)c2nnn(Cc3ccccc3)c2n1 | 13.8
O=C(Nc1ccccn1)c1csc2c1CCCC2 | 17.4
